In article PMC4336329 (PLoS ONE, 2015):
The campaign covered roughly 310,000 compounds. About 14,000 (4.5%) showed an effect of 50% or more. The effect is printed as a negative number. This is one part of the list.

Biological target: human ether-à-go-go-related gene (hERG) potassium channel (human, UniProt Q12809)
Assay: primary screen, population patch clamp on CHO cells stably expressing hERG
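Note: peak tail current of the secondary pulse compared with the same well before compound.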

Chain of human ether-à-go-go-related gene (hERG) potassium channel (Q12809 whole entry, looked up): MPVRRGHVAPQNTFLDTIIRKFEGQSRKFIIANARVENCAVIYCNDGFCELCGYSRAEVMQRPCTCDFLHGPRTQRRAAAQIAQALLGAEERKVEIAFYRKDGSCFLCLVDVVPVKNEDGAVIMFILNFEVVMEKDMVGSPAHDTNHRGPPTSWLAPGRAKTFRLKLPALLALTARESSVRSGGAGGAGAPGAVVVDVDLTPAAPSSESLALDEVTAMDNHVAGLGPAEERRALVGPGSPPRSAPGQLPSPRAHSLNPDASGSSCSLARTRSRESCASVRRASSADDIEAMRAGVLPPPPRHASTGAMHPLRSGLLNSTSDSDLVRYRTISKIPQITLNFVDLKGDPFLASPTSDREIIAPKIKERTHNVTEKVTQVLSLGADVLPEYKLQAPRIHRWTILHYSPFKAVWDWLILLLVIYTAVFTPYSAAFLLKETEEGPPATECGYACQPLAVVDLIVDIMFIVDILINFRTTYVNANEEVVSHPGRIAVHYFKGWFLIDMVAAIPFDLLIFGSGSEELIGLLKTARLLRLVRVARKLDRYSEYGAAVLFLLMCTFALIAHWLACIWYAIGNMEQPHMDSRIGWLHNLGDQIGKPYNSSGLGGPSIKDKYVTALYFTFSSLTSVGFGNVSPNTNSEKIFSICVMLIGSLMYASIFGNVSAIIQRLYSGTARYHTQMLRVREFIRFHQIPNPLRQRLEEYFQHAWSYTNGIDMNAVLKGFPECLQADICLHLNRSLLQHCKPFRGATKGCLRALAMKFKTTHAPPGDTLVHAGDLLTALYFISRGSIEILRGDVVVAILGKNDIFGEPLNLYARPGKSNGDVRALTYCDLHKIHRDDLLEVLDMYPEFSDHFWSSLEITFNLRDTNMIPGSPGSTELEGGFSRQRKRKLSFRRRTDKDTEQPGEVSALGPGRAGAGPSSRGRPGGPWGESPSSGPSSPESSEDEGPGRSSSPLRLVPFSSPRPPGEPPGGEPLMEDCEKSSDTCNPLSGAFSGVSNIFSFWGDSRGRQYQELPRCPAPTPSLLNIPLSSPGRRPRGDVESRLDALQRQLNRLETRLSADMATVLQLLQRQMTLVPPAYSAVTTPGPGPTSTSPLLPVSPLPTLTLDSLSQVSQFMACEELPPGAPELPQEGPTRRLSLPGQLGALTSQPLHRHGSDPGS

Structure (SMILES)	hERG current change (%, negative = inhibition) at 10uM [%]
COc1ccc(C2CC(=O)C(C(c3ccc(O)cc3)C3C(=O)CC(c4ccc(OC)cc4)CC3=O)C(=O)C2)cc1 (stereo not shown)	-3.5
O=C(c1cccc(-c2ccc(O)cc2)c1)N1CCOCC1	-3.36
COc1ccc(Cl)cc1C(=O)Nc1ccc2nc3n(c(=O)c2c1)CCCC3	-43
C/C(=N\NC(=O)c1ccc(F)cc1)c1ccccn1	8.97
Cc1cccc(C)c1OCC(=O)NNC(=O)c1ccoc1C	1.26
CC1=C[C@@H]2c3cccc4[nH]cc(c34)C[C@H]2N(C)C1	5.33
CCOP(=O)(OCC)C(NC(=O)CC(C)C)C(Cl)(Cl)Cl (stereo not shown)	7.72
Cc1ccc(N2C(=O)C(Cl)=C(N3CCCCCC3)C2=O)c(C)c1	17
O=C(c1cccc(Cl)c1)N1CCC(N2CCC(C(=O)N3CCCC3)CC2)CC1	-49.1
CC1CCN(C(=O)N[C@@H](Cc2ccccc2)C(=O)O)CC1	13.2
O=C(CSc1nnc(-c2ccc(S(=O)(=O)N3CCCC3)cc2)n1CC1CCCO1)NC1CC1 (stereo not shown)	-9.73
O=C(O)CSc1ccc(NC(=O)Nc2ccccc2F)cc1	23
COc1ccc(N2CCN(C(=O)CN(C3CCCCC3)S(C)(=O)=O)CC2)cc1	-10.1
Cc1ccc(S(=O)(=O)c2nc(S(C)(=O)=O)sc2N2CCCCC2C)cc1 (stereo not shown)	-15.7
CN(C(=O)c1ccccc1)c1nccnc1C#N	3.31
O=C(CCS(=O)(=O)c1ccc(Br)cc1)Nc1ccc(Cl)cc1F	11.5
C/C(=N\NC(=O)c1ccoc1C)c1ccccc1	3.88
CN(CCNC(=O)CN1CCN(Cc2ccccc2Cl)C1=O)Cc1ccccc1	-30.4
O=C(c1noc2c1CCCCC2)N1CCOCC1	10.3
Cn1c(N)c(C(=O)COC(=O)c2ccccc2C(=O)c2ccccc2)c(=O)n(C)c1=O	-12.4
CC(C)(C)C(=O)CSc1nnc(-c2cccs2)n1CC1CCCO1 (stereo not shown)	-12.4
NC(=O)CSc1nnc2n(-c3ccccc3)c(=O)c3c4c(sc3n12)CCCCC4	-1.99

Structure (SMILES)	hERG current change (%, negative = inhibition) at 10uM [%]
Cc1ccc(-n2nnnc2SCC(=O)Nc2cc(C)on2)c(C)c1	3.7
CCOCCCNC(=O)C(c1ccc(Cl)cc1)N1CCN(c2ccccc2)CC1 (stereo not shown)	7.17
O=C(OCc1cc2ccccc2[nH]c1=O)c1ccc([N+](=O)[O-])cc1	9.23
CCOc1ccccc1CN1CCN(CC2=Cc3cc(OC)ccc3OC2)CC1CCO (stereo not shown)	-83.3
COc1ccccc1NC(=O)CN1CCC(c2nc3ccc(C)cc3[nH]2)CC1	-57.7
O=C(NNC(=O)c1cccs1)c1ccc(Br)cc1	12.1
O=C1C(Br)=Cc2cccc3cccc1c23	14.8
COc1ccc(N2CCN(C(=O)CN(C)S(=O)(=O)c3cc(C)ccc3OC)CC2)cc1	-6.91
Cc1cccc(OCC(=O)N2CCN(C(=O)CCC3CCCC3)CC2)c1	-37.3
CCN(CC)S(=O)(=O)c1cccc(C(=O)N/N=C2\CC(=O)CC(C)(C)C2)c1	20.6
COc1ccc(N2CCN(C(=O)CCc3nc(-c4ccc(C)cc4)no3)CC2)cc1	-14.1
O=C(NC1CCCC1)C(c1ccncc1)N(C(=O)c1ccco1)c1ccc(F)c(Cl)c1 (stereo not shown)	-15.2
Clc1ccccc1Cn1nnc2c(N3CCOCC3)nc(C3CC3)nc21	8.5
COc1ccc(-c2nc(N)ncc2-c2csc(C)n2)c(O)c1OC	-1.69
COc1ccccc1/C=C1/C(=O)N(c2ccc([N+](=O)[O-])cc2)N=C1C	12.7
Cc1ccc(C(C)C)c(OCC(O)CNC2CCCC2)c1.Cl (stereo not shown)	-51.9
CN(Cc1cccc2cnccc12)C(=O)CCc1nnc(CCc2ccccc2)o1	-44.7
O=C(CCCn1c(=O)c2ccccc2n(CC(=O)NCc2ccco2)c1=O)NCc1ccco1	1.19
COc1cccc(Nc2nnc(SCn3nnc4ccccc4c3=O)s2)c1	7.88
COc1ccc(CCNC(=O)CSC(=O)c2ccccc2)cc1OC	13.9
COCCNC(=O)Cn1nc(-c2ccccc2OC)ccc1=O	15.9
